Source: PMC9911399, “Two distinct binding modes provide the RNA-binding protein RbFox with extraordinary sequence specificity”
Residue numbers refer to the chain shown, from its start. This is one part of the list.

T1: RBFOX1 RRM (Homo sapiens, UniProt Q9NWB1 109-208)
T1 sequence: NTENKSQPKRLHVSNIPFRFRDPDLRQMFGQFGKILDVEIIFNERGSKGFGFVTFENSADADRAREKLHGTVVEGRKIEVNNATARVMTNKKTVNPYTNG

B1: CAAUAGU (DNA:RNA)
RNA: GGGAGACCGGAAUUCAGAUUGUCCCAAUAGUUUAAAUCCCGUCGUAGCCACCA
DNA 1: CAATCTGAATTCCGGTCTCCC
DNA 2: TGGTGGCTACGACGGGATT
B2: UGCGAAU (DNA:RNA)
RNA: B1 RNA with C25U, A26G, A27C, U28G, G30A
DNA 1: CAATCTGAATTCCGGTCTCCC
DNA 2: TGGTGGCTACGACGGGATT
B3: AGGAGGU (DNA:RNA)
RNA: B1 RNA with C25A, A26G, A27G, U28A, A29G
DNA 1: CAATCTGAATTCCGGTCTCCC
DNA 2: TGGTGGCTACGACGGGATT
B4: GCACUUU (DNA:RNA)
RNA: B1 RNA with C25G, A26C, U28C, A29U, G30U
DNA 1: CAATCTGAATTCCGGTCTCCC
DNA 2: TGGTGGCTACGACGGGATT
B5: GCGAGGA (DNA:RNA)
RNA: B1 RNA with C25G, A26C, A27G, U28A, A29G, U31A
DNA 1: CAATCTGAATTCCGGTCTCCC
DNA 2: TGGTGGCTACGACGGGATT
B6: UCCGCCA (DNA:RNA)
RNA: GGGAGACCGGAAUUCAGAUUGUCCUCCGCCAUUAAAUCCCGUCGUAGCCACCA
DNA 1: CAATCTGAATTCCGGTCTCCC
DNA 2: TGGTGGCTACGACGGGATT
B7: ACUUCAA (DNA:RNA)
RNA: B6 RNA with U25A, C27U, G28U, C30A
DNA 1: CAATCTGAATTCCGGTCTCCC
DNA 2: TGGTGGCTACGACGGGATT
B8: GACGGGC (DNA:RNA)
RNA: B1 RNA with C25G, A27C, U28G, A29G, U31C
DNA 1: CAATCTGAATTCCGGTCTCCC
DNA 2: TGGTGGCTACGACGGGATT
B9: GUCUUCA (DNA:RNA)
RNA: B6 RNA with U25G, C26U, G28U, C29U
DNA 1: CAATCTGAATTCCGGTCTCCC
DNA 2: TGGTGGCTACGACGGGATT
B10: UUCGAUC (DNA:RNA)
RNA: B6 RNA with C26U, C29A, C30U, A31C
DNA 1: CAATCTGAATTCCGGTCTCCC
DNA 2: TGGTGGCTACGACGGGATT
B11: CUAGACU (DNA:RNA)
RNA: B1 RNA with A26U, U28G, G30C
DNA 1: CAATCTGAATTCCGGTCTCCC
DNA 2: TGGTGGCTACGACGGGATT
B12: AAUGCGC (DNA:RNA)
RNA: B1 RNA with C25A, A27U, U28G, A29C, U31C
DNA 1: CAATCTGAATTCCGGTCTCCC
DNA 2: TGGTGGCTACGACGGGATT
B13: AACUCAG (DNA:RNA)
RNA: B1 RNA with C25A, A27C, A29C, G30A, U31G
DNA 1: CAATCTGAATTCCGGTCTCCC
DNA 2: TGGTGGCTACGACGGGATT
B14: AGUCAUU (DNA:RNA)
RNA: B1 RNA with C25A, A26G, A27U, U28C, G30U
DNA 1: CAATCTGAATTCCGGTCTCCC
DNA 2: TGGTGGCTACGACGGGATT
B15: ACGGGUC (DNA:RNA)
RNA: B6 RNA with U25A, C27G, C29G, C30U, A31C
DNA 1: CAATCTGAATTCCGGTCTCCC
DNA 2: TGGTGGCTACGACGGGATT
B16: CCGCUUU (DNA:RNA)
RNA: B1 RNA with A26C, A27G, U28C, A29U, G30U
DNA 1: CAATCTGAATTCCGGTCTCCC
DNA 2: TGGTGGCTACGACGGGATT
B17: CCGACUC (DNA:RNA)
RNA: B6 RNA with U25C, C27G, G28A, C30U, A31C
DNA 1: CAATCTGAATTCCGGTCTCCC
DNA 2: TGGTGGCTACGACGGGATT
B18: UCACCCG (DNA:RNA)
RNA: B6 RNA with C27A, G28C, A31G
DNA 1: CAATCTGAATTCCGGTCTCCC
DNA 2: TGGTGGCTACGACGGGATT
B19: GGAGCCC (DNA:RNA)
RNA: B6 RNA with U25G, C26G, C27A, A31C
DNA 1: CAATCTGAATTCCGGTCTCCC
DNA 2: TGGTGGCTACGACGGGATT
B20: UCACCAG (DNA:RNA)
RNA: B6 RNA with C27A, G28C, C30A, A31G
DNA 1: CAATCTGAATTCCGGTCTCCC
DNA 2: TGGTGGCTACGACGGGATT
B21: AGAAAAA (DNA:RNA)
RNA: B1 RNA with C25A, A26G, U28A, G30A, U31A
DNA 1: CAATCTGAATTCCGGTCTCCC
DNA 2: TGGTGGCTACGACGGGATT
B22: AUUGCGC (DNA:RNA)
RNA: B6 RNA with U25A, C26U, C27U, C30G, A31C
DNA 1: CAATCTGAATTCCGGTCTCCC
DNA 2: TGGTGGCTACGACGGGATT
B23: GUAUCUG (DNA:RNA)
RNA: B1 RNA with C25G, A26U, A29C, G30U, U31G
DNA 1: CAATCTGAATTCCGGTCTCCC
DNA 2: TGGTGGCTACGACGGGATT
B24: CAGACUU (DNA:RNA)
RNA: B1 RNA with A27G, U28A, A29C, G30U
DNA 1: CAATCTGAATTCCGGTCTCCC
DNA 2: TGGTGGCTACGACGGGATT
B25: GAUAUAA (DNA:RNA)
RNA: B1 RNA with C25G, A27U, U28A, A29U, G30A, U31A
DNA 1: CAATCTGAATTCCGGTCTCCC
DNA 2: TGGTGGCTACGACGGGATT
B26: GGAAGAA (DNA:RNA)
RNA: B1 RNA with C25G, A26G, U28A, A29G, G30A, U31A
DNA 1: CAATCTGAATTCCGGTCTCCC
DNA 2: TGGTGGCTACGACGGGATT
B27: ACAGAUU (DNA:RNA)
RNA: B1 RNA with C25A, A26C, U28G, G30U
DNA 1: CAATCTGAATTCCGGTCTCCC
DNA 2: TGGTGGCTACGACGGGATT
B28: UGCUGUG (DNA:RNA)
RNA: B6 RNA with C26G, G28U, C29G, C30U, A31G
DNA 1: CAATCTGAATTCCGGTCTCCC
DNA 2: TGGTGGCTACGACGGGATT
B29: AUUGCGG (DNA:RNA)
RNA: B6 RNA with U25A, C26U, C27U, C30G, A31G
DNA 1: CAATCTGAATTCCGGTCTCCC
DNA 2: TGGTGGCTACGACGGGATT
B30: AGACCAA (DNA:RNA)
RNA: B6 RNA with U25A, C26G, C27A, G28C, C30A
DNA 1: CAATCTGAATTCCGGTCTCCC
DNA 2: TGGTGGCTACGACGGGATT
B31: AUCAUCC (DNA:RNA)
RNA: B6 RNA with U25A, C26U, G28A, C29U, A31C
DNA 1: CAATCTGAATTCCGGTCTCCC
DNA 2: TGGTGGCTACGACGGGATT

target: T1, RBFOX1 RRM; experiment: EMSA; HiTS-Eq, 1 nM pool, 10 min; buffer printed only for the single-RNA assays: 10 mM Tris pH 7.5, 150 mM NaCl, 3.4 mM EDTA, 0.001% NP-40, 30 C; conditions: tags: His6 N-terminal (pET28a); label: 5' 32P
Method in brief: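 A pool of RNA with 7 randomized nucleotides, 5′-radiolabelled and with DNA-annealed flanks, was equilibrated at 1 nM for 10 min in 50 µL with purified RbFox RRM, wild type or mutant, across increasing protein concentrations. Free RNA was separated by 8% native PAGE, excised, reverse-transcribed, barcoded by PCR and sequenced. Relative association constants were obtained from read-count changes of each RNA species versus the control reaction and normalised to the cognate motif.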

Binder | binding signal
B1 | 0.000926 KA relative to UGCAUGU
B2 | 0.0154 KA relative to UGCAUGU
B3 | 0.0162 KA relative to UGCAUGU
B4 | 0.00914 KA relative to UGCAUGU
B5 | 0.00797 KA relative to UGCAUGU
B6 | 0.0057 KA relative to UGCAUGU
B7 | 0.000968 KA relative to UGCAUGU
B8 | 0.0152 KA relative to UGCAUGU
B9 | 0.0081 KA relative to UGCAUGU
B10 | 0.0116 KA relative to UGCAUGU
B11 | 0.00641 KA relative to UGCAUGU
B12 | 0.0106 KA relative to UGCAUGU
B13 | 0.0069 KA relative to UGCAUGU
B14 | 0.00583 KA relative to UGCAUGU
B15 | 0.0159 KA relative to UGCAUGU
B16 | 0.00999 KA relative to UGCAUGU

Binder | binding signal
B17 | 0.00787 KA relative to UGCAUGU
B18 | 0.0029 KA relative to UGCAUGU
B19 | 0.0103 KA relative to UGCAUGU
B20 | 0.00424 KA relative to UGCAUGU
B21 | 0.00128 KA relative to UGCAUGU
B22 | 0.0173 KA relative to UGCAUGU
B23 | 0.015 KA relative to UGCAUGU
B24 | 0.00413 KA relative to UGCAUGU
B25 | 0.00469 KA relative to UGCAUGU
B26 | 0.0149 KA relative to UGCAUGU
B27 | 0.00352 KA relative to UGCAUGU
B28 | 0.0347 KA relative to UGCAUGU
B29 | 0.0083 KA relative to UGCAUGU
B30 | 0.00293 KA relative to UGCAUGU
B31 | 0.000273 KA relative to UGCAUGU
